The target in this assay is T1, ganglion-type receptors (α3β4 subtype in the Shooter subclone of rat pheochromocytoma PC12 cells) (Rattus norvegicus, UniProt P04757+P12392).
T1 construct: endogenous in cells; host or cells: rat PC12 pheochromocytoma cells (Shooter subclone)
T1 sequence (P04757 26-499): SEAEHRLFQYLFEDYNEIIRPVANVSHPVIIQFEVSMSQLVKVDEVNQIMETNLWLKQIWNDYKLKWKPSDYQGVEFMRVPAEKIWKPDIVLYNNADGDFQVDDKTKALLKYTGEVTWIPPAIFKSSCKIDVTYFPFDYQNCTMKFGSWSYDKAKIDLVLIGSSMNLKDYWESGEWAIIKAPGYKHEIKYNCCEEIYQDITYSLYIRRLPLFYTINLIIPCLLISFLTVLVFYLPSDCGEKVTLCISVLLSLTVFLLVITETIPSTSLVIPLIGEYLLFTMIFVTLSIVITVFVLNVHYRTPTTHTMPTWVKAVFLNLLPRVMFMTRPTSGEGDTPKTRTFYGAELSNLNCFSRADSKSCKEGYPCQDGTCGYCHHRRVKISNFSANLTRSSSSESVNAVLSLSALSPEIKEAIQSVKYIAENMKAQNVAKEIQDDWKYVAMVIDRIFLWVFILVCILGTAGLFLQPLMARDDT
T1 sequence (P12392 22-495 limits assumed): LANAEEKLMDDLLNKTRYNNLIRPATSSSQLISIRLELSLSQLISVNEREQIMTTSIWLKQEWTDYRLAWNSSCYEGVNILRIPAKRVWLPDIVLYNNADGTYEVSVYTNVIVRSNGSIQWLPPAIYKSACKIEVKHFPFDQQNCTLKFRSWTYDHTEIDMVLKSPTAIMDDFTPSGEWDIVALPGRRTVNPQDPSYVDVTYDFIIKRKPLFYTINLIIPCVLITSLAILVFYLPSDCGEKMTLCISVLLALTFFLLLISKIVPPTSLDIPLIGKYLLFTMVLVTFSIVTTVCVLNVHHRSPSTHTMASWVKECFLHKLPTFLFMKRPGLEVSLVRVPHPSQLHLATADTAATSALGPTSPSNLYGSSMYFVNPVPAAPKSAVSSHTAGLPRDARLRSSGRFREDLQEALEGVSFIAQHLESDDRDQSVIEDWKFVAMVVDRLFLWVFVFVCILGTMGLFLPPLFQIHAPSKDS
Briefly: cell-based. The conditions noted are these: PC-12, read-out: agonist activity, % of nicotine's response (rat ganglion).
Turning to `O=C(Nc1ccc(Br)cc1)OC1C2CCN(CC2)C1Cc1cccnc1` (centres unmarked) [Compound 1, 2-((3-pyridinyl)methyl)-1-azabicyclo[2.2.2]oct-3-yl N-(4-bromophenyl)carbamate], the activation at 100 µM was 1 to 19%.
Under `O=C(Nc1ccc(F)cc1)OC1C2CCN(CC2)C1Cc1cccnc1` (centres unmarked) [Compound 3, 2-((3-pyridinyl)methyl)-1-azabicyclo[2.2.2]oct-3-yl N-(4-fluorophenyl)carbamate] stands 1 to 19%; under `COc1ccc(NC(=O)OC2C3CCN(CC3)C2Cc2cccnc2)cc1` (centres unmarked) [Compound 4, 2-((3-pyridinyl)methyl)-1-azabicyclo[2.2.2]oct-3-yl N-(4-methoxyphenyl)carbamate], 1 to 19%.
Under `CSc1ccc(NC(=O)OC2C3CCN(CC3)C2Cc2cccnc2)cc1` (centres unmarked) [Compound 5, 2-((3-pyridinyl)methyl)-1-azabicyclo[2.2.2]oct-3-yl N-(4-methylthiophenyl)carbamate] stands 1 to 19%; under `O=C(NC1C2CCN(CC2)C1Cc1cccnc1)c1ccc(F)cc1` (centres unmarked) [Compound 8, N-(2-((3-pyridinyl)methyl)-1-azabicyclo[2.2.2]oct-3-yl)-4-fluorobenzamide], 1 to 19%.
Next, `O=C(NC1C2CCN(CC2)C1Cc1cccnc1)c1cc2ccccc2o1` (centres unmarked) [Compound 9, N-(2-((3-pyridinyl)methyl)-1-azabicyclo[2.2.2]oct-3-yl)benzofuran-2-carboxamide]: 1 to 19%; `O=C(NC1C2CCN(CC2)C1Cc1cccnc1)c1ccc(Br)cc1` (centres unmarked) [Compound 10, N-(2-((3-pyridinyl)methyl)-1-azabicyclo[2.2.2]oct-3-yl)-4-bromobenzamide]: 1 to 19%.
As to `O=C(NC1C2CCN(CC2)C1Cc1cccnc1)c1ccccc1` (centres unmarked) [Compound 13, N-(2-((3-pyridinyl)methyl)-1-azabicyclo[2.2.2]oct-3-yl)benzamide], the activation at 100 µM lay in the range of 1 to 19%.
Regarding `COc1cccc(C(=O)NC2C3CCN(CC3)C2Cc2cccnc2)c1` (centres unmarked) [Compound 14, N-(2-((3-pyridinyl)methyl)-1-azabicyclo[2.2.2]oct-3-yl)-3-methoxybenzamide], the activation at 100 µM lay within 1 to 19%.
Consider `O=C(NC1C2CCN(CC2)C1Cc1cccnc1)c1cccc(Br)c1` (centres unmarked) [Compound 15, N-(2-((3-pyridinyl)methyl)-1-azabicyclo[2.2.2]oct-3-yl)-3-bromobenzamide], for which the activation at 100 µM fell in the range of 1 to 19%.
Next, `O=C(Nc1ccccc1)NC1C2CCN(CC2)C1Cc1cccnc1` (centres unmarked) [Compound 16, N-phenyl-N′-(2-((3-pyridinyl)methyl)-1-azabicyclo[2.2.2]oct-3-yl)urea]: 1 to 19%.
Under `O=C(Nc1ccc(Oc2ccccc2)cc1)NC1C2CCN(CC2)C1Cc1cccnc1` (centres unmarked) [Compound 17, N-(4-phenoxyphenyl)-N′-(2-((3-pyridinyl)methyl)-1-azabicyclo[2.2.2]oct-3-yl)urea] stands 1 to 19%.
In the case of `CSc1ccc(NC(=O)NC2C3CCN(CC3)C2Cc2cccnc2)cc1` (centres unmarked) [Compound 18, N-(4-methylthiophenyl)-N′-(2-((3-pyridinyl)methyl)-1-azabicyclo[2.2.2]oct-3-yl)urea], the activation at 100 µM was in the range of 1 to 19%.
Regarding `O=C(Nc1cccc(F)c1)NC1C2CCN(CC2)C1Cc1cccnc1` (centres unmarked) [Compound 19, N-(3-fluorophenyl)-N′-(2-((3-pyridinyl)methyl)-1-azabicyclo[2.2.2]oct-3-yl)urea], the activation at 100 µM lay in the range of 1 to 19%.
Next, `O=C(Nc1ccc(Br)cc1)NC1C2CCN(CC2)C1Cc1cccnc1` (centres unmarked) [Compound 20, N-(4-bromophenyl)-N′-(2-((3-pyridinyl)methyl)-1-azabicyclo[2.2.2]oct-3-yl)urea]: 1 to 19%; `COc1ccccc1NC(=O)NC1C2CCN(CC2)C1Cc1cccnc1` (centres unmarked) [Compound 21, N-(2-methoxyphenyl)-N′-(2-((3-pyridinyl)methyl)-1-azabicyclo[2.2.2]oct-3-yl)urea]: 1 to 19%.
`COc1ccc(NC(=O)NC2C3CCN(CC3)C2Cc2cccnc2)c(OC)c1` (centres unmarked) [Compound 22, N-(2,4-dimethoxyphenyl)-N′-(2-((3-pyridinyl)methyl)-1-azabicyclo[2.2.2]oct-3-yl)urea]: the activation at 100 µM lay in the range of 1 to 19%.
Under `O=C(Nc1ccc(Cl)c(Cl)c1)NC1C2CCN(CC2)C1Cc1cccnc1` (centres unmarked) [Compound 23, N-(3,4-dichlorophenyl)-N′-(2-((3-pyridinyl)methyl)-1-azabicyclo[2.2.2]oct-3-yl)urea] stands 1 to 19%.
Next, `COc1ccc(NC(=O)NC2C3CCN(CC3)C2Cc2cccnc2)cc1` (centres unmarked) [Compound 24, N-(4-methoxyphenyl)-N′-(2-((3-pyridinyl)methyl)-1-azabicyclo[2.2.2]oct-3-yl)urea]: 1 to 19%; `CN(C)c1ccc(NC(=O)NC2C3CCN(CC3)C2Cc2cccnc2)cc1` (centres unmarked) [Compound 25, N-(4-dimethylaminophenyl)-N′-(2-((3-pyridinyl)methyl)-1-azabicyclo[2.2.2]oct-3-yl)urea]: 1 to 19%; `CN(C(=O)Nc1ccccc1)C1C2CCN(CC2)C1Cc1cccnc1` (centres unmarked) [Compound 26, N-phenyl-N′-methyl-N′-(2-((3-pyridinyl)methyl)-1-azabicyclo[2.2.2]oct-3-yl)urea]: 1 to 19%.
With `CN(C(=O)Nc1ccc(Br)cc1)C1C2CCN(CC2)C1Cc1cccnc1` (centres unmarked) [Compound 27, N-(4-bromophenyl)-N′-methyl-N′-(2-((3-pyridinyl)methyl)-1-azabicyclo [2.2.2]oct-3-yl)urea], the activation at 100 µM is 1 to 19%.
`O=C(C=Cc1ccccc1)NC1C2CCN(CC2)C1Cc1cccnc1` (centres unmarked) [Compound 28, N-(2-((3-pyridinyl)methyl)-1-azabicyclo[2.2.2]oct-3-yl)3-phenylprop-2-enamide]: the activation at 100 µM lay within 1 to 19%.
Under `O=C(C=Cc1ccc(Cl)cc1)NC1C2CCN(CC2)C1Cc1cccnc1` (centres unmarked) [Compound 29, N-(2-((3-pyridinyl)methyl)-1-azabicyclo[2.2.2]oct-3-yl)-3-(4-chlorophenyl)prop-2-enamide] stands 1 to 19%; under `O=C(C=Cc1ccc(Br)cc1)NC1C2CCN(CC2)C1Cc1cccnc1` (centres unmarked) [Compound 30, N-(2-((3-pyridinyl)methyl)-1-azabicyclo[2.2.2]oct-3-yl)-3-(4-bromophenyl)prop-2-enamide], 1 to 19%; under `O=C(C=Cc1cccc(O)c1)NC1C2CCN(CC2)C1Cc1cccnc1` (centres unmarked) [Compound 31, N-(2-((3-pyridinyl)methyl)-1-azabicyclo[2.2.2]oct-3-yl)-3-(3-hydroxyphenyl)prop-2-enamide], 1 to 19%.
Next, `COc1cccc(C=CC(=O)NC2C3CCN(CC3)C2Cc2cccnc2)c1` (centres unmarked) [Compound 32, N-(2-((3-pyridinyl)methyl)-1-azabicyclo[2.2.2]oct-3-yl)-3-(3-methoxyphenyl)prop-2-enamide]: 1 to 19%; `O=C(C=Cc1ccccc1F)NC1C2CCN(CC2)C1Cc1cccnc1` (centres unmarked) [Compound 33, N-(2-((3-pyridinyl)methyl)-1-azabicyclo[2.2.2]oct-3-yl)-3-(2-fluorophenyl)prop-2-enamide]: 1 to 19%; `O=C(C=Cc1ccccc1O)NC1C2CCN(CC2)C1Cc1cccnc1` (centres unmarked) [Compound 34, N-(2-((3-pyridinyl)methyl)-1-azabicyclo[2.2.2]oct-3-yl)-3-(2-hydroxyphenyl)prop-2-enamide]: 1 to 19%.
